56 compounds from article PMC4336329 (PLoS ONE, 2015) can be followed below.

Screen size: about 310,000 compounds; about 14,000 (4.5%) showed an effect of 50% or more. The effect is printed as a negative number. Some of the results follow.
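Note: peak tail current of the secondary pulse compared with the same well before compound.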

For this assay, the target named is human ether-à-go-go-related gene (hERG) potassium channel (human, UniProt Q12809). Kind of assay: primary screen, population patch clamp on CHO cells stably expressing hERG.
Chain of human ether-à-go-go-related gene (hERG) potassium channel (Q12809 whole entry, looked up): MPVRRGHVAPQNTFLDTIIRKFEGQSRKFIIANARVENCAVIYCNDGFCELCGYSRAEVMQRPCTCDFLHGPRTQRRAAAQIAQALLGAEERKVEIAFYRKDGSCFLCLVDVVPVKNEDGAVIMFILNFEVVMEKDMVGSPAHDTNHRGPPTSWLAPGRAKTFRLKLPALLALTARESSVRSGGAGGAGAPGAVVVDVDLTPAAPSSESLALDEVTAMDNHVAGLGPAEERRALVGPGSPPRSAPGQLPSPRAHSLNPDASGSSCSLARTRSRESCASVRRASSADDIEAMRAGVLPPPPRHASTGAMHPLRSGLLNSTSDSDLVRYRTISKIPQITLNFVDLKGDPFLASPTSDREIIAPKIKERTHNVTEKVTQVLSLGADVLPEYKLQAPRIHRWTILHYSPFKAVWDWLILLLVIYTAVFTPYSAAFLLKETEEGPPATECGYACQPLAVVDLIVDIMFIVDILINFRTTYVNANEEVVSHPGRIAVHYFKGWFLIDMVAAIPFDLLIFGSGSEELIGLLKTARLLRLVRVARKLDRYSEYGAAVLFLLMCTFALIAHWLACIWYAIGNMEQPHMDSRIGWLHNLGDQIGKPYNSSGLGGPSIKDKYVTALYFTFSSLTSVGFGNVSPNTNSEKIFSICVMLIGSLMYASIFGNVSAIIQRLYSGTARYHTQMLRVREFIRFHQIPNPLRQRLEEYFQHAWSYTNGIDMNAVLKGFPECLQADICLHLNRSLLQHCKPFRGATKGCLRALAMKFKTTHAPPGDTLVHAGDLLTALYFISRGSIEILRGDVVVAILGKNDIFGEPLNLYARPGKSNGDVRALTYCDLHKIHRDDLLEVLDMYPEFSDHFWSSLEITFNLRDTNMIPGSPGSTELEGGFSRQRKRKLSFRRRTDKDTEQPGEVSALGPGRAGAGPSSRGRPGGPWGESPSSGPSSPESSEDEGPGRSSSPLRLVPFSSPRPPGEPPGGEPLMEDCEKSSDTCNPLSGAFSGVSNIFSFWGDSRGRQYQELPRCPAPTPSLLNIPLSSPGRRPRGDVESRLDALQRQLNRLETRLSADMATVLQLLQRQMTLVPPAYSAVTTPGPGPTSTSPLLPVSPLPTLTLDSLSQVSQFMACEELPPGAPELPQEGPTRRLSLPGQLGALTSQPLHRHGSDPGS
`O=C(NC(C(=O)N/N=C/c1cccc2ccccc12)c1n[nH]c(=O)c2ccccc12)c1ccccc1` (centres unmarked): the “hERG current change (%, negative = inhibition) at 10uM” value was determined as 7.55%.
For `CCN(Cc1ccncc1)Cc1nc(Cc2ccccc2Cl)no1` the value was -34.8%; for `COc1cc2nc(CN(C)Cc3ccc(OC)c(OC)c3OC)[nH]c(=O)c2cc1OC`, 19.7%.
In the case of `CC(=O)c1cccc(OCC(O)CNCC2CCCCC2)c1` (centres unmarked) it was 10.3%; in that of `CC(=O)c1c(C(C)=O)c(C)n(-c2ccc(N)c(C)c2)c1C`, 18.1%.
For `CS(=O)(=O)c1ccccc1COC(=O)Nc1ccc(Cl)cc1` the value was 0.00428%.
In the case of `COc1ccccc1C(=O)N/N=C/c1cnc2ccccc2n1`, the “hERG current change (%, negative = inhibition) at 10uM” value is 4.1%.
As to `CCCCCCCCCCC(=O)Nc1cccnc1`, the “hERG current change (%, negative = inhibition) at 10uM” value turned out to be 11.9%.
In the case of `COc1ccc(OCC(=O)Nc2ccc3oc(=O)ccc3c2)cc1` it was -2.22%; in that of `O=C(NC(=S)NCC1CCCO1)c1ccccc1Br` (centres unmarked), 4.66%.
With `Cc1ccccc1NC(=O)C(Cc1ccccc1)n1cccc1` (centres unmarked), the “hERG current change (%, negative = inhibition) at 10uM” value is recorded as -0.159%.
`Cc1nc(N2CCC(C)CC2)c2c(C)c(C(=O)Nc3ccccc3C(F)(F)F)sc2n1`: the “hERG current change (%, negative = inhibition) at 10uM” value was -2.14%.
For `CCOc1ccc(Nc2oc(Cc3ccccc3)nc2C#N)cc1` the value was -1.96%; for `Oc1c(Br)c(Br)c(Br)c(Br)c1Br`, 27.7%.
For `O=C(Nc1ccccc1)NC1(C(=O)N2CCN(c3ncccn3)CC2)CCCCC1` the value was 22.2%.
For `COc1ccc(-c2ccc(SCC(=O)NC3CCCC3)nn2)cc1OC` the value was 9.57%; for `COC(=O)CN1C(=O)CN=C(c2ccccc2Cl)c2cc(Br)ccc21`, -8.64%; for `OCCOc1nnnn1-c1ccccc1`, 9.26%.
As for `Cc1ccc(C(=O)c2c(NC(=O)c3ccccc3)sc(C)c2C)cc1`, the “hERG current change (%, negative = inhibition) at 10uM” value amounted to 25.5%.
For `O=C(NC1CCCCC1)c1cc(Cl)nc2ccccc12` the value was 4.23%; for `Cc1ccc(S(=O)(=O)N2CCCC(C(=O)NCCc3ccccc3)C2)cc1` (centres unmarked), 11.5%.
In the case of `O=C(/C=C/c1ccc(-c2ccccc2[N+](=O)[O-])o1)c1ccc(F)cc1` it was -0.214%.
In the case of `O=C(c1ccco1)N1CCN(c2ccc([N+](=O)[O-])cc2Cl)CC1` it was -71.4%.
For `O=C(Nc1ccc(F)cc1)c1cccnc1N1CCCCC1`, the “hERG current change (%, negative = inhibition) at 10uM” value was -8.27%.
With `CN(C)c1ccc(C=NCC2(O)CCOC(C)(C)C2)cc1` (centres unmarked), the “hERG current change (%, negative = inhibition) at 10uM” value stood at 8.24%.
In the case of `Oc1ccc(Cl)cc1C1=Nc2ccccc2N=C(c2ccco2)C1` it was 0.578%; in that of `CCC(c1c(C)[nH]oc1=O)c1c(C)[nH]oc1=O`, 8.28%.
For `O=C(NCC1CCCO1)C(c1ccc(F)cc1)N(C(=O)Cn1nnc(-c2ccc(F)cc2)n1)c1cccc(O)c1` (centres unmarked) the value was 9.71%; for `CCN(CC(=O)Nc1ccccc1C(F)(F)F)C(=O)CCc1ccccc1`, 4.72%; for `O=C(Nc1cc(C(F)(F)F)ccc1Cl)C(NCc1ccccc1)c1ccccc1` (centres unmarked), 2.13%.
In the case of `CCN(CC)CCCN1C(=O)C2C(C(=O)Nc3ccc(C(C)C)cc3)C3C=CC2(O3)C1C(=O)NC1CCCCC1` (centres unmarked) it was 24.7%.
Regarding `COc1ccc(NC(=O)c2ccc(C)cc2Cl)c([N+](=O)[O-])c1`, the “hERG current change (%, negative = inhibition) at 10uM” value worked out at 27.6%.
Take `Cc1ccccc1C(=O)N1CCC(C(N)=O)CC1`: the “hERG current change (%, negative = inhibition) at 10uM” value was determined as 14.8%.
In the case of `O=C(Cc1ccccc1)N/N=C/c1cc(Br)cc(Br)c1O` it was 22.5%.
For the compound `O=C(NCCc1ccc(Cl)cc1)C1CCN(C(=O)N2CCOc3ccccc32)CC1`, the “hERG current change (%, negative = inhibition) at 10uM” value is given as -43.1%.
For `COc1ccccc1C(=O)C1CCCN(Cc2ccc(Oc3ncccn3)cc2)C1` (centres unmarked) the value was -40.6%; for `O=C(Nc1cccc(NC(=O)C2CC2)n1)C1CC1`, -6.67%.
For `O=[N+]([O-])c1ccc(O)c(/C=N/Nc2ccccc2[N+](=O)[O-])c1` the value was 9.81%; for `CC[C@H](C)[C@H](NC(=O)c1ccccc1)C(=O)Nc1ccc(S(=O)(=O)Nc2cc(C)nc(C)n2)cc1`, 19.2%.
In the case of `O=C(NCc1cccs1)c1cc(-c2ccccc2)nn1CC1CC(c2cccc([N+](=O)[O-])c2)=NO1` (centres unmarked) it was -66.9%; in that of `COCCCNc1nc(SCc2ccccc2)nc2sc3c(c12)CCC3`, 30.8%.
Take `CCOc1ccccc1CNC(=O)CCCn1ccc2cc(S(=O)(=O)N3CCCC3)ccc21`: the “hERG current change (%, negative = inhibition) at 10uM” value is recorded as -20.5%.
In the case of `COc1ccc(C2C(C(=O)Nc3ccccn3)=C(C)Nc3ncnn32)c(OC)c1` (centres unmarked) it was 2.9%; in that of `CCOC(=O)CC(NC(=O)Cc1ccccc1)c1ccccc1Cl` (centres unmarked), 1.83%; in that of `Cn1cc(S(=O)(=O)N2CCCC2)cc1C(=O)NCc1ccc(F)cc1`, -1.25%.
In the case of `Cc1nn2c(-c3cccc(NC(=O)CSc4nc5ccccc5o4)c3)nnc2c2ccccc12` it was -70.8%; in that of `Cc1ccc(C(N)=Nc2ccccc2)cc1`, 13.3%.
In the case of `COc1cc(CCC(=O)OCC(=O)NCc2ccc(Cl)cc2)cc(OC)c1OC` it was -4.41%.
As to `CCOC(=O)c1c(NC(=O)CN2CCN(C)CC2)sc(C(=O)Nc2ccccc2)c1C`, the “hERG current change (%, negative = inhibition) at 10uM” value is listed as -58.9%.
In the case of `O=C(O)C(=O)O.O=C(c1ccccc1)N1CCN(C2CCCCC2)CC1`, the “hERG current change (%, negative = inhibition) at 10uM” value is listed as -31.9%.
For `COc1ccc(-c2nc3ccc([N+](=O)[O-])cc3o2)cc1` the value was 7.28%; for `O=C(NC1CCCC1)c1cc(-c2ccccc2)on1`, -13%; for `Cc1cc(C(=O)Nc2ccc(S(=O)(=O)Nc3nccs3)cc2)c(C)o1`, -4.57%.
For `Cn1c(=O)c2c(ncn2CC(=O)Nc2ccc(Cl)cc2Cl)n(C)c1=O` the value was -8.62%; for `Cc1cc(C)nc(Nc2ccc(Br)cc2C(=O)O)n1.Cl`, 23.4%.
For `CCOC(=O)c1c(NC(=O)c2ccc(N3C(=O)[C@@H]4[C@H](C3=O)[C@H]3C=C[C@@H]4C3)cc2)sc2c1CCCC2` the value was 4.99%.
